Results on 5 substances are retold here after paper PMC7881136.

Sequences of proteins named here, by UniProt entry; tags and fusion partners are left off. A change or cut given only in a name is not applied to a line headed by its entry.
UniProt Q14974: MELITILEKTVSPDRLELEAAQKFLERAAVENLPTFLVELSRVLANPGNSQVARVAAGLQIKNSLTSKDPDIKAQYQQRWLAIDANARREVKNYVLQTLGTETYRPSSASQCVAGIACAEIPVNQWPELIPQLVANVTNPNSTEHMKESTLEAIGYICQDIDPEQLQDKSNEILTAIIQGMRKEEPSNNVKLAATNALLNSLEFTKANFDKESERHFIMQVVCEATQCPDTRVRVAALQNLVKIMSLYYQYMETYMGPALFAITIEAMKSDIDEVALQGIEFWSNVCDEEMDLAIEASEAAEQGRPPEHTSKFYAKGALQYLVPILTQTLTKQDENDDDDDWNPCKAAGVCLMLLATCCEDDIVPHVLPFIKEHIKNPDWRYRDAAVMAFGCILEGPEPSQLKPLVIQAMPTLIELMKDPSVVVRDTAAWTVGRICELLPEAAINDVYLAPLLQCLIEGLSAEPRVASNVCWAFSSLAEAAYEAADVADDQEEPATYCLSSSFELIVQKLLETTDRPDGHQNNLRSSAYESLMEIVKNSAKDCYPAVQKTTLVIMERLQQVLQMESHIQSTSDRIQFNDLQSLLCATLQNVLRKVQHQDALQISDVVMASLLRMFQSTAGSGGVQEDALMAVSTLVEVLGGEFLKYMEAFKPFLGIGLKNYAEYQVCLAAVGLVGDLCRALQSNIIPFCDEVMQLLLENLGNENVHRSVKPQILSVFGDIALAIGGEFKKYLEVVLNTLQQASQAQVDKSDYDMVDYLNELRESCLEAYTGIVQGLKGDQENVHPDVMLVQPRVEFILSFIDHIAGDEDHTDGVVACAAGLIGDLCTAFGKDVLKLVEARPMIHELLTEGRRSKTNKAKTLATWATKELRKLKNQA
UniProt P35637: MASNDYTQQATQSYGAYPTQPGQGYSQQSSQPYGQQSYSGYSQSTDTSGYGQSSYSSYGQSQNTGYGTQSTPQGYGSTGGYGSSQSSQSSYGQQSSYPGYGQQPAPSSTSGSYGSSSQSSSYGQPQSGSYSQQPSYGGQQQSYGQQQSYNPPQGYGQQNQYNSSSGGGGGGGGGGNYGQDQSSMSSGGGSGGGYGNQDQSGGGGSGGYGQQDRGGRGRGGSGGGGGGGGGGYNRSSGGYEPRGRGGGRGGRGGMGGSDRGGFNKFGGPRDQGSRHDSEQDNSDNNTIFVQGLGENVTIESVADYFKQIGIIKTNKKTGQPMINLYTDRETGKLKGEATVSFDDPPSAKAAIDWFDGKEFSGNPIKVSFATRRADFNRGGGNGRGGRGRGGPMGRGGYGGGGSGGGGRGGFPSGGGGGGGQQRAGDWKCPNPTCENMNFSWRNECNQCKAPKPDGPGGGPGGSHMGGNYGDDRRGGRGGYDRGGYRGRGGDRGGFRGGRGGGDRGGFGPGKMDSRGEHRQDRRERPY

For test [1], the target named is GST-Impβ (Importin-β) (UniProt Q14974). Nature of the test: pull-down; 4–8 μM GST-importin (or GST) immobilised on 50 μL GSH beads; 4–8 μM MBP-FUS protein or GSP1 added in 100 μL; 20 mM HEPES pH 7.4, 110 mM potassium acetate, 2 mM magnesium acetate, 2 mM DTT, 15% glycerol; 30 min at 25 °C, three washes; Coomassie-stained SDS-PAGE; both purified.
For test [2] the target is unchanged. Description: pull-down; MBP-FUS(1–500) with immobilized GST-Impβ in the presence of MBP-IBB; Coomassie-stained SDS-PAGE; both purified.
The next test addresses GST-Importin-9 (UniProt Q96P70). Description: pull-down; 4–8 μM GST-importin (or GST) immobilised on 50 μL GSH beads; 4–8 μM MBP-FUS protein or GSP1 added in 100 μL; 20 mM HEPES pH 7.4, 110 mM potassium acetate, 2 mM magnesium acetate, 2 mM DTT, 15% glycerol; 30 min at 25 °C, three washes; Coomassie-stained SDS-PAGE; both purified.
For the next test, the target named is T1, GST-Importin-5 (UniProt O00410).
T1 sequence: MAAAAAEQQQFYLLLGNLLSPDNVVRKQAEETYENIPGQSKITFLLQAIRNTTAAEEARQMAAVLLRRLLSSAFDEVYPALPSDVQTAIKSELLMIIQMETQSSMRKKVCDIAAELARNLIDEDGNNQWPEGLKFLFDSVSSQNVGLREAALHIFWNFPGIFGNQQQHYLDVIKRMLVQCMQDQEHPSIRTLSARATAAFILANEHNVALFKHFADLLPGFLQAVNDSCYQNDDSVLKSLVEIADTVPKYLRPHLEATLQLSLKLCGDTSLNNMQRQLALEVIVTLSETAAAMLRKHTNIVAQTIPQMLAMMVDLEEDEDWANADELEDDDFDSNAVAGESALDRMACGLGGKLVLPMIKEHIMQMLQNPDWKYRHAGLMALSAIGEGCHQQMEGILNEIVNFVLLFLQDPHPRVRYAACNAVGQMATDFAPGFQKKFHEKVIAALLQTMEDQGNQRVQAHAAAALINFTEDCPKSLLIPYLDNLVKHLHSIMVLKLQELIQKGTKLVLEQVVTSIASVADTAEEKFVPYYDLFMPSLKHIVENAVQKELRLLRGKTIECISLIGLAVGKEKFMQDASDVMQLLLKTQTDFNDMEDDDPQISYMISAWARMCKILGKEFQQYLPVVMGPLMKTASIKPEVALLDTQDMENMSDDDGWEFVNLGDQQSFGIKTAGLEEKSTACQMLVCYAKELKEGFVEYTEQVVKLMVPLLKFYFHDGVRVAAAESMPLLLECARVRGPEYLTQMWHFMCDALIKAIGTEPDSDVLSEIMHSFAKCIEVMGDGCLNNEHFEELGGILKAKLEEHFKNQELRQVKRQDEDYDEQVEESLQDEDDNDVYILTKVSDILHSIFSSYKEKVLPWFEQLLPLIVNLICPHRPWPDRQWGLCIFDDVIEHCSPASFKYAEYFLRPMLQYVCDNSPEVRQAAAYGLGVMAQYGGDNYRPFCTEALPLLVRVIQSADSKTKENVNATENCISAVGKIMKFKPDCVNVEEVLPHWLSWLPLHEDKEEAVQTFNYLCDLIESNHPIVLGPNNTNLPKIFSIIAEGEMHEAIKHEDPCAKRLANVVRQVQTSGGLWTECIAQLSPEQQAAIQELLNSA
Described as above.

No constants are given. Whether binding was seen depends on the method and setting. Some binding calls cover weakened binding; strength is not graded here. For some assays here: Tags and fused reporters may be left off the sequences shown.

Consider “MBP-FUS (full length) (from UniProt P35637 1-526)”, for which the binding entry with GST-Impβ (Importin-β) [1] was “binds”.

Regarding “MBP-FUS PY-NLS (residues 475–526) (from UniProt P35637 475-526) (domain or fragment)”, in the test with GST-Impβ (Importin-β) [1], the binding entry is given as “no binding (tested: 4–8 μM)”.

For the substance “MBP-FUS(1–500) (from UniProt P35637 1-500) (domain or fragment)”, the binding entry with GST-Impβ (Importin-β) [1] and with GST-Impβ (Importin-β) [2] was “binds” each time.

In the case of “MBP-FUS(371–500) (RGG2-ZnF-RGG3) (from UniProt P35637 371-500) (domain or fragment)”, the binding entry is recorded as “binds” in the test with GST-Impβ (Importin-β) [1], “binds weakly” with GST-Importin-9 and “binds weakly” in the test with GST-Importin-5.

For the substance “MBP-FUS(R495X) (residues 1–494) (from UniProt P35637 1-494) (domain or fragment)”, the binding result with GST-Impβ (Importin-β) [1] is listed as “binds”.
